# Experimental data as given in PubChem BioAssay AID602293 (National Center for Advancing Translational Sciences (NCATS), 2012).
# Hit rate of the full screen: of about 1,300 compounds, about 30 (2%) were called active. Roughly 10% stayed inconclusive and do not appear here. Calls come from the whole dose curve; as a rule, active = well fitted inhibition curve with a large enough effect; inconclusive = small, poorly fitted or top-dose-only effect; inactive = flat fitted curve, though single readings scatter. Some of the results follow.
# Assay: qHTS for antagonists of the Thyroid Stimulation Hormone Receptor: Hit Validation in HTRF Activity in a Luteinizing Hormone Receptor Cell Line
# Conditions: LHR-expressing cell line, cAMP HTRF, antagonist mode; series mostly up to 58 µM; activity change, negative = inhibition: at the top concentration
# In short: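 Counter-screen on LH receptor–transfected HEK 293 cells: 30 min compound exposure at room temperature in medium containing 100 uM RO 20-1724 phosphodiesterase inhibitor. Cellular cAMP read by competitive HTRF after lysis with d2-cAMP and anti-cAMP antibody (330 nm excitation; 615/660 nm emission).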
# % is set by controls: 0 for no effect and ±100 for the full control effect; potency is the fitted concentration of half-maximal effect.
SMILES,"activity change, negative = inhibition",Potency
CC(=O)c1ccc(N2CCN(C(=S)Nc3ccc(Oc4ccccc4)cc3)CC2)cc1,inactive: -2.45%,–
COCCn1nnnc1C(c1cccs1)N1CCN(c2cc(C)ccc2C)CC1 (configuration not stated),inactive: -2.34%,–
CC(C)Cn1c(-c2csc3c2CCCC3)n[nH]c1=S,inactive: 2.71%,–
CC1CCN(Cc2c(C(=O)N/N=C/c3cc(Cl)ccc3O)nnn2-c2nonc2N)CC1,inactive: 2.76%,–
CC(NC(=O)c1ccc([N+](=O)[O-])o1)C12CC3CC(CC(C3)C1)C2 (configuration not stated),inactive: -0.379%,–
Cc1cc(C(=O)NC2CCCc3c2cnn3-c2ccc(C(C)(C)C)cc2)nn1C (configuration not stated),inactive: -1.72%,–
CC(C)(C)NC(=O)C(c1ccc(O)cc1)N(Cc1ccccc1)C(=O)CCC(=O)Nc1nccs1 (configuration not stated),inactive: 0.618%,–
O=C(COc1ccc(-c2ccccc2)cc1)Nc1cccnc1,inactive: 0.544%,–
CCOC(=O)c1sc(NC(=O)CSc2n[nH]c(-c3ccncc3)n2)c(C#N)c1C,inactive: 0.55%,–
CCOC(=O)N1CCN(C(=O)CCc2ccccc2)CC1,inactive: 1.26%,–
CCCn1c(=O)c2[nH]c(C3CCCC3)nc2n(CCC)c1=O,inactive: 0.486%,–
c1ccc(C(c2nnnn2Cc2ccco2)N2CCN(c3nc4ccccc4s3)CC2)cc1 (configuration not stated),inactive: -1.35%,–
Cc1cccc(CC(=O)NCC(=O)NCc2cc(=O)n(C)c(=O)n2C)c1,inactive: 1.21%,–
Cc1ccc(Cl)cc1NC(=O)c1cc2ccccc2cc1O,inactive: -9.65%,–
Cc1cccc(N(C(=O)c2nsc(Cl)c2Cl)C(C(=O)NC2CCCC2)c2ccc(O)cc2)c1C (configuration not stated),–,active: 12 µM
O=C(Nc1ccncc1)c1ccc(Cl)c(S(=O)(=O)N2CCc3ccccc32)c1,inactive: -6.47%,–
CCCN1C(=O)c2ccc(C(=O)Nc3cc(C)ccc3O)cc2C1=O,inactive: 2.99%,–
COc1ccc(N2C(=O)NC(NS(=O)(=O)c3ccc(Cl)cc3)(C(F)(F)F)C2=O)cc1 (configuration not stated),inactive: -0.112%,–
CCc1noc(C)c1C(=O)Oc1ccc(N(C)S(=O)(=O)c2ccc(C)cc2)cc1,inactive: -9.49%,–
CC(=O)c1cccc(NC(=O)c2sc3nc4n(c(=O)c3c2C)CCCC4)c1,inactive: -1.36%,–
O=C(NN=C1CCCC1)c1cc(Cl)cc(Cl)c1O,inactive: -0.628%,–
Fc1ccc(/C=C2\CCCC3=C2Nc2ncnn2C3c2ccc(F)cc2)cc1 (configuration not stated),inactive: -0.807%,–
COc1ccc(NC(=O)CCC2CCCCC2)cc1S(=O)(=O)N1CCCCC1,inactive: -0.0089%,–
COc1cccc(OC)c1C(=O)Nc1sc2c(c1C#N)CCC2,inactive: 2.11%,–
CSCCCNC(=O)c1ccc(OC2CCN(C(=O)c3cccnc3)CC2)cc1,inactive: 1.78%,–
CC(C)C1Nc2c(O)cc(Cl)c([N+](=O)[O-])c2C2C=CCC21 (configuration not stated),inactive: 1.7%,–

SMILES,"activity change, negative = inhibition",Potency
c1ccc2c(COn3nnc4ccccc43)cccc2c1,inactive: 0.456%,–
COCC1CCCCN1C(=O)C1CCN(c2nc(-c3ccccc3)nc3c2CCC3)CC1 (configuration not stated),inactive: -4.78%,–
COc1cc(NC(=O)Cn2nc(C(F)(F)F)c(Br)c2C)cc([N+](=O)[O-])c1,inactive: -0.304%,–
CCn1nc(C)c(CN2CCCC(CNS(=O)(=O)c3ccc(OC)cc3)C2)c1C (configuration not stated),inactive: -0.0173%,–
COc1ccc(CNC(=O)C2CCCN2C(=O)NCc2ccccc2)cc1 (configuration not stated),inactive: -0.212%,–
O=C(COC(=O)c1ccccc1SCC(=O)N1CCCC1)Nc1ccccc1,inactive: -1.77%,–
O=C(NC(=S)Nc1ccc(C(=O)N2CCOCC2)cc1)c1ccc([N+](=O)[O-])cc1,inactive: -1.19%,–
O=[N+]([O-])c1ccc(Sc2cccc[n+]2[O-])c2nonc12,–,active: 23.9 µM
CNc1c(NC(=O)c2ccc3c(c2)OCO3)c(=O)oc2ccccc12,inactive: 2.31%,–
COc1ccc(C2c3ccc(O)cc3Oc3ncn(Cc4ccco4)c(=N)c32)cc1 (configuration not stated),inactive: 1.3%,–
CCOc1ccccc1NC(=O)CSc1nc2ccccc2c(=O)n1CC1CCCO1 (configuration not stated),inactive: 1.54%,–
O=C(/C=C/c1ccc(Cl)cc1Cl)NCCSCc1ccccc1,inactive: -5.45%,–
O=[N+]([O-])c1ccc(COc2cccc(CNc3ccc(F)cc3)c2)cc1,inactive: 2.34%,–
COc1ccc(S(=O)(=O)N2CCN(c3cccc(C)c3C)CC2)cc1,inactive: 0.716%,–
O=C(NCC1CCCO1)c1cccc2c1C(=O)c1ccc(N3CCC(Cc4ccccc4)CC3)cc1S2(=O)=O (configuration not stated),inactive: -8.99%,–
Cc1cccc(NC(=S)NCC(C)CSc2ccc(Cl)cc2)c1 (configuration not stated),inactive: -2.86%,–
O=C(O)/C=C/c1ccc(S(=O)(=O)Nc2ccccc2C(=O)Nc2ccc(F)cc2)cc1,inactive: -0.301%,–
CCS(=O)(=O)c1ncc(Cl)c(C(=O)Nc2ccc(S(=O)(=O)N(C)c3ccccc3)cc2)n1,–,active: 42.6 µM
Cc1ccc2c(CN3CCN(S(=O)(=O)c4ccc(Cl)cc4)CC3)cc(=O)oc2c1C,inactive: -1.49%,–
CC(=O)N/C(=C\c1ccc(Cl)cc1)C(=O)O,inactive: 1.95%,–
COc1cccc(NC(=S)N2CCCN(Cc3ccc(F)cc3)C2)c1,inactive: 0.168%,–
Cc1nnc(SCC(=O)Nc2nonc2C)s1,inactive: -1.27%,–
O=C1NC(=S)S/C1=C\c1ccc2ccccc2c1,inactive: -0.809%,–
O=C(O)c1ccc(S(=O)(=O)N(Cc2ccccc2)Cc2ccccc2)cc1,inactive: 0.446%,–
O=C1C=C(c2ccc3[nH]ccc3c2)C[C@@H](c2ccc(Cl)cc2)C1,inactive: -2.81%,–
CCOc1ccccc1N1CCN(C(=O)CCCN2C(=O)c3cccc4cccc(c34)C2=O)CC1,inactive: 1.98%,–

SMILES,"activity change, negative = inhibition",Potency
Cc1c(C(=O)NCc2ccc3c(c2)OCO3)sc2nc(-c3ccccc3)cn12,inactive: 0.0777%,–
Cc1ccc(-n2nc3c(=O)n(C(C)C(=O)NC4CC4)nc(C)c3c2C)cc1 (configuration not stated),inactive: 2.26%,–
O=C(Nc1ccc(C(F)(F)F)cc1)c1csc(-c2ccncc2)n1,inactive: -5.69%,–
COc1ccc(NC(=S)N(CCCN2CCOCC2)C(C)c2cc3cccc(OC)c3o2)cc1 (configuration not stated),inactive: 2.94%,–
COc1cccc(CN(C)C(=O)c2ccc(Oc3ccccc3)cc2)c1OC,inactive: 1.12%,–
O=C(Nc1nccs1)c1ccc(COc2c(F)c(F)cc(F)c2F)o1,inactive: 0.958%,–
COc1ccc(F)cc1CN1CCN(C(=O)CCC(=O)Nc2nnc(CC(C)C)s2)CC1,inactive: 1.03%,–
CCOc1cc(N2CCOCC2)c(OCC)cc1NC(=O)c1cc(S(=O)(=O)N2CCOCC2)ccc1C,inactive: -0.64%,–
Cc1ccc(C)c(S(=O)(=O)N2CCN(C(=O)C3CCN(c4ncnc5sc(C)c(C)c45)CC3)CC2)c1,inactive: -4.34%,–
Cc1ccc(S(=O)(=O)N(CC(=O)NCc2ccccn2)c2ccc(Cl)cc2)cc1,inactive: -0.666%,–
NC(=O)c1cc(S(=O)(=O)NCc2ccc(F)cc2)cs1,inactive: 0.264%,–
NS(=O)(=O)c1ccc(NCc2ccccc2OCc2ccccc2F)cc1,inactive: -2.31%,–
Cc1cccc(C)c1OCCCn1ccnc1,inactive: -0.665%,–
N#Cc1nc(-c2ccccc2)oc1N1CCN(C(=O)c2ccco2)CC1,inactive: -0.0764%,–
CC(C)Cc1csc(NC(=O)c2ccc(Br)cc2)c1C(=O)O,inactive: 0.206%,–
Cn1c2c(c(=O)n(C)c1=O)C(C(F)(F)F)(C(F)(F)F)N=C(c1ccc(Cl)cc1)N2,inactive: -0.364%,–
O=C(Nc1nc(-c2ccccc2)cs1)c1ccccc1NS(=O)(=O)c1ccc(F)cc1,inactive: -4.26%,–
CCOc1cc(S(=O)(=O)n2cnc(C)c2)ccc1Cl,inactive: -0.117%,–
COC(CNC(=O)c1cn(C)c2ccc(S(=O)(=O)N3CCOCC3)cc2c1=O)OC,inactive: -1.26%,–
COc1ccc2ccccc2c1/C=N/NC(=O)c1nnn(-c2nonc2N)c1C(C)C,inactive: -2.14%,–
COC(=O)C1C(=O)NC(SC)=C(C#N)C1c1ccccc1 (configuration not stated),inactive: 2.08%,–
CCOC(=O)N1CCN(C(=O)c2ccc(NS(=O)(=O)c3ccc(C)cc3)cc2)CC1,inactive: -2.84%,–
CCOc1ccc(-n2c(SCC(=O)Nc3cc(C)on3)nc3c(c2=O)SCC3)cc1,inactive: 1.17%,–
COc1cc(NC(=O)C(C)C)ccc1NC(=O)c1ccco1,inactive: -1.72%,–
COc1cccc(/C=N/NC(=O)C(=O)N2CCCC2)c1O,inactive: 2.1%,–
Cc1onc(-c2ccccc2Cl)c1C(=O)NC(=S)Nc1ccc(C(C)C)cc1,inactive: -0.899%,–

SMILES,"activity change, negative = inhibition",Potency
O=S(=O)(C/C(=C/CO)S(=O)(=O)c1ccccc1)c1ccccc1,inactive: -0.386%,–
O=C(Nc1cccc(Cl)c1)Nc1ccc(Br)cc1F,inactive: -5.11%,–
C(=N\Nc1nc2ccccc2[nH]1)/c1ccncc1,inactive: 1.9%,–
O=C1C=C(c2ccc(Cl)c(C(F)(F)F)c2)C[C@@H](c2ccc(F)cc2)C1,inactive: -3.14%,–
c1ccc2c(CSc3ncnc4nc[nH]c34)cccc2c1,inactive: 1.84%,–
O=C(COC(=O)c1cc(S(=O)(=O)N2CCOCC2)c(Cl)cc1Cl)c1ccc[nH]1,inactive: -1.62%,–
COc1ccc(-n2nc(C(=O)NCC(=O)NCCCN3CCN(C)CC3)c3ccccc3c2=O)cc1,inactive: 2.91%,–
COc1ccc(-c2nnc(CSc3nc4ccccc4c(=O)n3CC3CCCO3)o2)cc1OC (configuration not stated),inactive: 2.69%,–
COc1ccc(-c2ccc(SCc3ccccn3)nn2)cc1OC,inactive: 2.61%,–
Cc1sc2ncnc(N3CCN(CCOc4ccc(Cl)cc4)CC3)c2c1C,inactive: -1.63%,–
CCOC(=O)C1CCCN(S(=O)(=O)c2cnc(Cl)c(Br)c2)C1 (configuration not stated),inactive: -0.394%,–
O=[N+]([O-])c1ccc(N2CCN(C(=S)NCc3ccc(Cl)cc3)CC2)cc1,inactive: -0.0341%,–
O=c1[nH]c(=O)c2nnc(N/N=C/c3ccccc3F)nc2[nH]1,inactive: 1.97%,–
Cc1ccc(S(=O)(=O)/N=C2\C=C(Nc3cccc(C(=O)O)c3)C(=O)c3ccccc32)cc1,inactive: 1.18%,–
COc1cc(NS(=O)(=O)c2ccc(C)cc2C)cc(OC)c1OC,inactive: -3.91%,–
O=C(Nc1ccc(N=Nc2ccccc2)cc1)c1ccccc1Cl,inactive: -3.28%,–
O=C(/C=C/c1ccco1)Nc1ccc(Oc2ccc(Cl)cc2)cc1,inactive: -4.15%,–
CS(=O)(=O)N(CC(=O)N1CCOCC1)c1cccc(F)c1,inactive: 0.399%,–
O=C(NCc1cccnc1)c1nc(-c2ccccc2)n(-c2ccccc2)n1,inactive: 0.968%,–
COc1ccc(CN(C)C(=O)COC(=O)c2ccc(-c3ccccc3)cc2)c(OC)c1OC,inactive: -1.51%,–
CS(=O)(=O)c1ccc(C(=O)OCC(=O)NC(=O)C2CCCCC2)cc1[N+](=O)[O-],inactive: -0.0335%,–
COc1ccc(NS(=O)(=O)c2ccc(N/N=C(\C)c3ccncc3)c([N+](=O)[O-])c2)cc1,inactive: -6.17%,–
CCOc1ccnc2c1c(=O)n(Cc1cc(OC)cc(OC)c1)c(=O)n2C,inactive: 0.92%,–
O=C(COc1ccccc1/C=C1\SC(=S)NC1=O)Nc1ccc(F)cc1,inactive: 0.549%,–
